The campaign covered roughly 48,000 compounds. About 120 (0.25%) were called active. Roughly 4% stayed inconclusive and do not appear here. The call rests on the fitted dose curve; in most records, active means well fitted activation curve with a large enough effect; inconclusive means small, poorly fitted or top-dose-only effect, or another doubt; inactive means no such curve, though single readings can be large or run the other way. The list shows a part of the results.
Assay: Primary qHTS for Identification of Small Molecule Activators of Huntingtin-Antisense Promoter Activity; further: nearly all actives have a fitted effect of over 55% in size
Settings: HEK293 HTT-AS promoter firefly luciferase reporter (activity 0% = vehicle and -100% = no light), 24 h; series mostly up to 57.5 µM; activity change, positive = activation: at the top concentration
Outline: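 Luminescence was read after Dual-Glo reagent and a 10 min room-temperature incubation. Values were normalized to vehicle (0% activity) and zero RLU (-100% activity). Reporter HEK293 cells had been exposed to compounds (up to 57.5 uM final) for 24 h.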

Activity change, positive = activation, inactive:
COc1ccc(OCC(=O)NC(Cc2c[nH]c3ccccc23)C(=O)O)cc1 (centres undefined) 3.03%
CC1(COc2ccc(CC3SC(=O)NC3=O)cc2)CCCCC1 (centres undefined) 14.1%
CCc1nnc(SC(CC)C(=O)Nc2cc(C)ccc2C)c2cc3occc3n12 (centres undefined) -11.3%
COc1cc(C2c3c(oc4ccccc4c3=O)C(=O)N2Cc2ccc(C)cc2)ccc1O (centres undefined) 18%
CC1CCN(CCCNC(=O)CN2C(=O)CSc3ccc(S(=O)(=O)N4CCOCC4)cc32)CC1 -6.23%
Cc1ccc(CNC(=O)CCc2nc3cccnc3n2Cc2ccccc2)cc1 8.9%
CC(=O)Nc1ccc(NC(=O)C(NS(=O)(=O)c2ccc(Br)s2)c2ccccc2)cc1 (centres undefined) -19.6%
COc1cc(NC(=O)Cn2nnnc2-c2ccccc2F)cc(OC)c1OC -4.11%
Cc1ccc(Cn2cc(S(=O)(=O)c3ccc(Cl)cc3)c(=O)c3cc4c(cc32)OCO4)cc1 3.97%
CCOc1ccc2nc(N(Cc3cccnc3)C(C)=O)sc2c1 22.8%
O=C1CC(=O)Nc2cc(S(=O)(=O)Nc3ccc(F)cc3Cl)ccc2N1 -0.691%
Cc1ccc(OCCSc2nc3ccc(NC(=O)c4ccco4)cc3s2)cc1 -19.2%
CN(c1ncccc1CNc1nc(Nc2ccc3c(c2)CC(=O)N3)ncc1C(F)(F)F)S(C)(=O)=O -45.1%
CC(=O)N1CCc2cc(S(=O)(=O)NC(Cc3ccccc3)C(=O)NCc3ccccc3Cl)ccc21 (centres undefined) 7.33%
O=C(CCNS(=O)(=O)c1ccc2c(c1)CCN2C(=O)C1CC1)N1CCN(c2cccc(C(F)(F)F)c2)CC1 -48.9%
CCCc1ccc(OC(C)c2nc(-c3ccc(-n4cccc4)cc3)no2)cc1 (centres undefined) -20.9%
COCc1oc2ccc(NS(=O)(=O)c3ccc(C)cc3)cc2c1C(=O)OC -35.1%
Cc1cccc2c(=O)cc(CSc3ccccc3NC(=O)C(C)(C)C)[nH]c12 -13.9%
COc1ccc(OCc2ccc(-c3nc(C#N)c(NCc4cccnc4)o3)o2)cc1 -24.3%
CCOC(=O)c1cc(S(=O)(=O)NCc2ccc(OC)cc2)[nH]n1 -17.3%
CCCC(=O)Nc1ccccc1C(=O)OCc1cc(=O)n2nc(C(C)C)sc2n1 -8.96%
CCC(=O)N1CCCc2cc(S(=O)(=O)N3CCC(C(=O)Nc4ccc(C#N)cc4)CC3)ccc21 -9.08%
CC(=O)c1cccc(NC(=O)Cn2cc(C(=O)c3cccc(Cl)c3)c(=O)c3ccc(C)nc32)c1 -23.5%
COc1ccc(OC)c(S(=O)(=O)N2CCN(Cc3nc4ccc(C)cc4o3)CC2)c1 -6.34%
CCN(C(=O)Cn1c(=O)n(Cc2ccc3c(c2)OCO3)c(=O)c2ccc(C(=O)NC3CCCCC3)cc21)c1cccc(C)c1 -23.7%
Cc1cc(C)cc(NC(=O)N2CCN(C(=O)c3nsc4ccccc34)CC2)c1 -18.7%
COC(=O)c1ccc(-n2c(/C=C/c3cc(OC)c(OC)c(OC)c3)nc3cc(Cl)ccc3c2=O)cc1 -12.6%
COc1ccc(N2CCN(CCCNC(=O)c3ccc4nc(Cc5ccccc5)oc4c3)CC2)cc1 -26.2%
CCOc1ccc(CNC(=O)C2CCCN(c3nn4cc(-c5ccc(F)cc5)nc4s3)C2)cc1 (centres undefined) -62.3%
COc1ccc(-n2c(=O)c3c(c4cc(OC)ccc4n3C)n(CC(=O)N3CCCC3)c2=O)cc1 -8.84%
CCc1ccc(NC(=O)CCCc2nnc3n(CCCOC)c(=O)c4sccc4n23)cc1 0.483%
Cc1ccc(NC(=O)C(C)Sc2nc3c(c(=O)[nH]2)CCCC3)cc1Cl (centres undefined) -8.72%
CSc1cccc(NC(=O)CN2C(=O)CCc3cc(S(=O)(=O)N4CCCCC4)ccc32)c1 -38.9%
CCOc1ccccc1NC(=O)CSc1ccc2nc(-c3ccccc3)cn2n1 -74.7%
CCOc1ccc(/C=C/c2nc(C#N)c(NCCCN(C)C)o2)cc1 -15.7%
CCc1ccc2oc(-c3ccc(NC(=O)c4cccc(Cl)c4Cl)cc3)nc2c1 -7.18%
O=C(Cn1cnc2c(nc3n2CCCCC3)c1=O)Nc1cccc(C(F)(F)F)c1 -9.11%
COC(=O)c1ccccc1NC(=O)Cn1c(=O)n(CCCC(=O)NCc2ccccc2Cl)c(=O)c2ccccc21 -6.8%
O=C(COc1ccccc1Cl)N(Cc1cccc(F)c1)C1CCS(=O)(=O)C1 (centres undefined) -12.2%
CCOC(=O)C1CCN(C(=O)CSc2n[nH]c(-c3ccc(OC)cc3)n2)CC1 -4.81%
Cn1c(=O)n(C)c2cc(N3CCOCC3)c(NS(=O)(=O)c3ccc(Cl)cc3)cc21 -13.3%
Cc1ccc(-n2c(=O)c3c(cnn3C)n(CC(=O)Nc3cccc(C)c3)c2=O)cc1 -5.21%
COc1ccccc1N1CCN(C(=O)c2cc3c(-c4ccccc4F)nn(C)c3s2)CC1 -38%
Cc1cc(=O)n(Cc2c(F)cccc2Cl)c2c1c(C)nn2C -22%
CCOC(=O)Cn1c(CN2CCN(c3ccc(OC)cc3)CC2)nc2c1c(=O)[nH]c(=O)n2C -7.09%
COc1ccc(CCNC(=O)Cn2c(-c3ccc(F)cc3)cc(C(C)=O)c2C)cc1OC -24.2%
COc1ccc2c(c1)CC(C(=O)NCCc1ccc(S(N)(=O)=O)cc1)CO2 (centres undefined) -9.05%
Cc1ccc(C)c(OC(=O)CSc2nnc(-c3cccs3)o2)c1 -4.04%
COc1cc2ccccc2cc1C(=O)N1CCN(c2nc3c(F)cc(F)cc3s2)CC1 -27.4%
CCCC(=O)Nc1cc(-c2nnc3c4ccccc4c(C)nn23)ccc1C 1.29%
CC1=C(C(=O)Nc2cccnc2)C(c2ccccc2Cl)n2nc(-c3ccccc3)nc2N1 (centres undefined) -12.4%
Cc1cc(NC(=O)CSc2ncc(C(=O)Nc3ccc(C)c(C)c3)c(=O)n2C)no1 11%
Cc1ccc(NC(=O)CCSc2nc(-c3ccc4c(c3)OCO4)cc(C(F)(F)F)n2)c(C)c1 -8.1%
CCOc1ccccc1C(=O)NCc1ccc2c(c1)CCN2C(=O)c1ccccc1 -41%
CS(=O)(=O)c1ncc(Cl)c(C(=O)Nc2c(C(=O)c3ccc(Cl)cc3)oc3ccccc23)n1 -24.3%
COc1ccc(CCNC(=O)c2ccc(Cn3c(SCC(=O)NCCC(C)C)nc4cc5c(cc4c3=O)OCO5)cc2)cc1OC -9.71%
Clc1cccc(-n2ncc3c(NCCCN4CCOCC4)ncnc32)c1 2.79%
Cc1ccc2nc(CN3CCN(S(=O)(=O)c4ccc(C)c(C)c4)CC3)oc2c1 -5.44%
O=C(Nc1ccc2oc(-c3ccc4ccccc4c3)nc2c1)c1cc(Cl)ccc1Cl -24.3%

Reference: PubChem BioAssay AID1508624 (National Center for Advancing Translational Sciences (NCATS), 2021)
